Publication PMC4336329 (PLoS ONE, 2015)
Hit rate of the full screen: of about 310,000 compounds, about 2,200 (0.71%) showed an effect of 50% or more. The effect is printed as a negative number. Some of the results follow.

Molecular target: human ether-à-go-go-related gene (hERG) potassium channel (human, UniProt Q12809)
Assay: primary screen, population patch clamp on CHO cells stably expressing hERG

Sequence of human ether-à-go-go-related gene (hERG) potassium channel (Q12809 whole entry, looked up): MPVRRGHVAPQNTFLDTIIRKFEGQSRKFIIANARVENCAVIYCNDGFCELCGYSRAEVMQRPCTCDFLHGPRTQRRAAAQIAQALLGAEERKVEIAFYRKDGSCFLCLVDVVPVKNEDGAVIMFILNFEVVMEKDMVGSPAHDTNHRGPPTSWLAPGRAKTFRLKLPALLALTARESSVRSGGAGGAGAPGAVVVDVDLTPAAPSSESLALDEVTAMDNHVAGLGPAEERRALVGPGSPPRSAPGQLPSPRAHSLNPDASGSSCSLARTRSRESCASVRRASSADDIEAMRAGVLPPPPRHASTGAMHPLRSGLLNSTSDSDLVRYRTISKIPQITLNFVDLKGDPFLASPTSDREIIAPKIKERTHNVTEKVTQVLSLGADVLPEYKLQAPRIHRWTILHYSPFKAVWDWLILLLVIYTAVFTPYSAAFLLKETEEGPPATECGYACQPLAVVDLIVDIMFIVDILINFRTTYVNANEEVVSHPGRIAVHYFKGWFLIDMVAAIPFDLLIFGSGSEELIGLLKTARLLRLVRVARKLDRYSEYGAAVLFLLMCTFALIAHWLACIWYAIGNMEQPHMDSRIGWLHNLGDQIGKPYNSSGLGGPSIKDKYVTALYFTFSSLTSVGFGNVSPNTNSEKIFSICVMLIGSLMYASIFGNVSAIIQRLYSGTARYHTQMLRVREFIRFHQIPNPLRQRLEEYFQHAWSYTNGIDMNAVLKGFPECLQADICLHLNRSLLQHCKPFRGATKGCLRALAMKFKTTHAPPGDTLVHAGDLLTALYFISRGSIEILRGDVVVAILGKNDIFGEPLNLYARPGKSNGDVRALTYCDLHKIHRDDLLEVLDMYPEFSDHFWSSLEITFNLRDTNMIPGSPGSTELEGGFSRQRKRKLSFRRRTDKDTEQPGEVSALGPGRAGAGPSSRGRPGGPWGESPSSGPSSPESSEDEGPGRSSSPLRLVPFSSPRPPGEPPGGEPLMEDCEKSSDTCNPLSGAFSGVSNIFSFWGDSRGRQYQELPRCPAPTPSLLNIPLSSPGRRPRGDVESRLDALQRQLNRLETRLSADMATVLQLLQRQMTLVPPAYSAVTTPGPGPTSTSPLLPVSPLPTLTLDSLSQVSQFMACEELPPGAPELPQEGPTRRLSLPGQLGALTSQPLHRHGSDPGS

Compound | hERG current change (%, negative = inhibition) at 1uM
Cc1ccc2oc(C(=O)N(Cc3ccc(N(C)C)cc3)CC3CCCO3)c(C)c2c1 (stereo not drawn) | 7.49%
Cc1ccc(/C=N/NC(=O)NC2CCCCC2)o1 | 4.89%
Cc1ccc(-c2cc(C(=O)Nc3nn[nH]n3)c3ccccc3n2)cc1 | 9.75%
CCc1ccc(OCC(=O)N/N=C(\C)c2ccc3c(c2)OCCO3)cc1 | -3.42%
O=C(NC1CCC1)C1CCC(=O)N(Cc2ccccc2F)C1 (stereo not drawn) | -0.1%
Cc1cc(-c2c(C)[nH]n(-c3ccc(Cl)cc3)c2=O)n[nH]1 | 10.3%
Oc1ccc2ccccc2c1-c1sc(Nc2ccccc2)n[n+]1-c1ccc(F)cc1.[Cl-] | 6.48%
C=CCNC(=O)COCc1cc(-c2ccc3c(c2)OCO3)on1 | 9.44%
O=C(/C=C/c1ccc2c(c1)OCO2)NCCCN1CCOCC1 | 6.43%
COc1ccc(S(=O)(=O)n2nc(-c3ccc(Cl)cc3)cc2N)cc1OC | 14.3%
C[C@@H]1O[C@@H](O[C@H]2[C@H](O)[C@@H](O)[C@H](Oc3c(-c4ccc(O)c(O)c4)oc4cc(O)cc(O)c4c3=O)O[C@@H]2CO)[C@H](O)[C@H](O)[C@H]1O | 14.6%
Cc1ccc(C(=O)NCc2ccc(F)cc2)s1 | 7.24%
C=CCn1c(SCc2cc(C(C)=O)ccc2OCC)nc2ccccc2c1=O | 4.65%
Cc1ccc(N2CCN(c3ccc([N+](=O)[O-])cn3)CC2)c(C)c1 | 5.15%
O=C(O)C1CSC(CCc2ccccc2)N1 (stereo not drawn) | 7.43%
O=C(NC(=S)Nc1ccccc1N1CCOCC1)c1ccc([N+](=O)[O-])cc1 | 10.6%
CCCN1C(=O)/C(=N\OCC(=O)NC23CC4CC(CC(C4)C2)C3)c2ccccc21 | -0.568%
COc1ccc(NC(=O)CC(C)NCCCN2CCCC2=O)cc1.O=C(O)C(=O)O (stereo not drawn) | 10.9%
N#C/C(=C\N1CCOCC1)C(N)=O | 17.1%
COC(=O)C(O)(c1ccc(NC(=O)Oc2ccccc2)cc1)C(F)(F)F (stereo not drawn) | -6.21%
Cc1ccc(NC(=O)COC(=O)c2cccnc2)cc1 | 6.72%
CC(C)Sc1nc2c(c(=O)[nH]c(=O)n2C)n1Cc1ccc(Cl)cc1 | 4.3%
CC1CCN(C(=O)C2c3ccccc3C(=O)N3CCc4ccccc4C23)CC1 (stereo not drawn) | 18.5%

Compound | hERG current change (%, negative = inhibition) at 1uM
COc1cc(NC(=O)c2ccc(Cl)cc2)c(OC)cc1Cl | 2.91%
COc1ccc(Cc2c(N)nc(C)nc2N)cc1 | 18.7%
CC(=O)NS(=O)(=O)c1ccc(NC(=O)c2oc3c(Cl)cccc3c2C)cc1 | 11.8%
O=C(c1ccco1)n1nc(-c2ccco2)nc1SCc1ccccc1 | 14%
Cc1cc(NS(=O)(=O)c2ccc(NC(=O)C(C)Oc3ccccc3Cl)cc2)no1 (stereo not drawn) | 1.96%
Cc1ccc(NC(=O)Nc2ccc(F)cc2F)c(OC(F)F)c1 | 15.3%
O=C(NCc1ccc(Cl)cc1)C1CCN(S(=O)(=O)c2cccs2)CC1 | 6.96%
CCOC(=O)Nc1ccc(C)cc1Br | -7.49%
COc1ccc(-n2c(O)c(/C=C/C=Nc3ccccc3)c(=O)[nH]c2=O)cc1 | 13.8%
Cl.O=C(NCCCn1ccnc1)c1cc(Cl)cc(Cl)c1 | 4.65%
Nc1nc(N)c2ncc(C(=O)CCc3ccccc3)nc2n1 | 7.42%
c1ccc2[nH]c(CN3CCOCC3)nc2c1 | 14%
NC(N)=NS(=O)(=O)c1ccc(NC(=S)NC(=O)c2ccc3c(c2)OCO3)cc1 | 10.5%
Brc1ccc(OCc2nc(-c3ccccn3)n[nH]2)cc1 | 4.48%
CCC1=C(OC(=O)N(CC)CC)N2C(=O)OC(=NCC3CC3)[C@]2(C)[C@H]2C1=CC[C@H]1C(=O)N(C)C(=O)[C@H]12 | 13.4%
Cn1c(CNC(=O)c2ccccc2)nnc1SCC(=O)Nc1nccs1 | 13.3%
O=C(NCCCN1CCOCC1)C(=O)NCc1ccco1 | 3.89%
CN(Cc1ccc(F)cc1)C(=O)c1cccc(OC2CCN(C3CCCC3)CC2)c1 | -29%
O=C(Nc1ccccc1)c1ccncc1 | 8.93%
Cc1nc(SCC(=O)c2c[nH]c3ccccc23)n[nH]1 | 12.7%
CCc1nnc(NC(=O)c2cc(C)nc3ccccc23)s1 | 10.6%
CC(=O)Oc1ccc(/C=C(\NC(=O)c2ccco2)C(=O)NCc2ccccc2)cc1 | -58.9%
Cn1ncc([N+](=O)[O-])c1C(=O)Nc1ccccc1Cl | 15%

Compound | hERG current change (%, negative = inhibition) at 1uM
Cc1ccc(NC(=O)CN(C)S(=O)(=O)c2ccc3c(c2)n(C)c(=O)c(=O)n3C)c(C)c1 | 12.7%
Clc1ccccc1/C=C/c1nc(-c2ccccn2)no1 | 13.1%
CC(CN1CCCC1)OC(=O)c1ccc(Cl)cc1.Cl (stereo not drawn) | 11.7%
COc1ccc(CCNC(=O)C2CCN(C(=O)c3ccccc3)CC2)cc1 | 12.3%
COC(C(=O)Nc1ccc(S(=O)(=O)Nc2c(C)cccc2C)cc1)c1ccccc1 (stereo not drawn) | -69.6%
CC(=O)c1cccc(NS(=O)(=O)c2ccc(N/C=C\C(=O)c3ccc(F)cc3)cc2)c1 | 13.6%
COc1ccccc1NC(=O)CCN1C(=O)C2CC=CCC2C1=O (stereo not drawn) | 12.3%
CC(C)c1ccc(NC(=O)C2=NNC(=O)CC2)cc1 | 7.39%
CCCCn1c(O)c(C(C)=NC(C)c2ccccc2)c(=O)[nH]c1=O (stereo not drawn) | -0.344%
O=C(NCCc1ccccc1)C1CCN(c2ncccn2)CC1 | 5.09%
COc1cccc(CNC(=O)c2ccc(C3SCCS3)cc2)c1 | -10.1%
CC(C)C[C@H](NC(=O)Nc1ccc2c(c1)OCCO2)C(=O)O | 10.5%
O=[N+]([O-])c1c(N2CCN(CCO)CC2)nc2ccccn12 | 10.3%
CC(=O)c1ccc(NC(=O)CN2CCCCCC2)cc1 | 16.6%
Cc1cccc(N2N=C(C(=O)Nc3ccc(Cl)c(S(=O)(=O)N4CCOCC4)c3)CCC2=O)c1 | -3.81%
COCCCn1c(SCc2cccc(OC)c2)nc2cc(OC)c(OC)cc2c1=N | 3.02%
COC(=O)CN1C(=S)N(c2ccc(Cl)cc2)C(=O)C1CC(=O)Nc1ccccc1 (stereo not drawn) | 1.84%
CN(C(=O)COC(=O)CCCN1C(=O)c2cccc3cccc(c23)C1=O)C1CCS(=O)(=O)C1 (stereo not drawn) | 8.53%
Clc1ccc2ccc3cccnc3c2n1 | 12.8%
CCOC(=O)C1CCN(C(=O)CCS(=O)(=O)c2ccc3c(c2)CC(C)N3C(=O)CC)CC1 (stereo not drawn) | 12.5%
Cc1c(C(=O)NCc2cccnc2)oc2ccc(S(=O)(=O)N3CCCCCC3)cc12 | -2.1%
O=C(O)c1cccc(-n2sc3ccccc3c2=O)c1 | 13.3%
COc1ccc(CCNC(=O)CSc2nc(O)c(CCC(C)C)c(=O)[nH]2)cc1OC | 6.07%

Compound | hERG current change (%, negative = inhibition) at 1uM
COCc1c(C(=O)OCc2nc3ccsc3c(=O)[nH]2)oc2ccccc12 | 2.36%
COc1cc(OC)cc(C(=O)NCc2ccc3c(c2)cc(C)n3C)c1 | 13%
C=CCn1c(-c2ccccc2OCC)n[nH]c1=S | 0.355%
COc1ccc(S(=O)(=O)N2CCCC(C(=O)NCc3ccco3)C2)cc1Cl (stereo not drawn) | -3.23%
COc1ccc(OC)c(N(CC(=O)NCc2ccccn2)S(C)(=O)=O)c1 | 11.2%
CC(=O)c1cc(CCC(=O)NC2CCCCCC2)oc1C | 3.52%
COCc1nnc(NC(=O)CCN2C(=O)c3ccccc3C2=O)s1 | -1.59%
O=C(O)c1ccc2c(c1Nc1ccccc1)C(=O)c1ccccc1C2=O | 11.8%
CC(C#Cc1ccc2c(c1)COc1c3ccccc3nn1-2)OC(C)(C)C (stereo not drawn) | 16.4%
O=C(NNC(=O)c1ccc(Cl)cc1Cl)c1cnccn1 | 0.624%
CC1CCN(c2[nH]c(=S)c(C#N)c3c2CCCC3)CC1 | 8.22%
COc1ccccc1C(=O)NCCOc1ccc(C)c(C)c1 | 15.7%
COc1ccc(-n2cc(CNCCc3ncc(C)[nH]3)c(-c3ccccc3Cl)n2)cc1 | -9.71%
Cl.OC(COCc1ccc(Cl)cc1)CN1CCc2ccccc2C1 (stereo not drawn) | -27.3%
Cc1ccc(SC(C)C(=O)NC(N)=O)c(C)c1 (stereo not drawn) | 16.5%
CC(C)N(C(=O)COC(=O)c1cccc(C(=O)OCC(=O)N(C(C)C)C(C)C)n1)C(C)C | 14.7%
Cc1nc2ccccc2n1CCc1nc2c3ccccc3nc(=S)n2[nH]1 | 0.137%
CCC(Sc1ncccc1C(=O)O)C(=O)N1CCOCC1 (stereo not drawn) | 1.01%
Cc1ccc(NC(=O)C2CCCC2)cc1S(=O)(=O)N1CCOCC1 | -0.761%
CCOC(=O)CC1CCCCN1Cc1nc(-c2ccc(F)c(OC)c2)oc1C (stereo not drawn) | -2.09%
O=C(NCCCN1CCN(CCCNC(=O)c2ccccc2F)CC1)c1ccccc1F | -7.16%
